The source of these data is PMC4336329 (PLoS ONE, 2015).

SMILES strings stand for the structures. About 14,000 (4.5%) of roughly 310,000 compounds showed an effect of 50% or more. The effect is printed as a negative number. The list shows a part of the results.
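Note: peak tail current of the secondary pulse compared with the same well before compound.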

Chain of human ether-à-go-go-related gene (hERG) potassium channel (Q12809 whole entry, looked up): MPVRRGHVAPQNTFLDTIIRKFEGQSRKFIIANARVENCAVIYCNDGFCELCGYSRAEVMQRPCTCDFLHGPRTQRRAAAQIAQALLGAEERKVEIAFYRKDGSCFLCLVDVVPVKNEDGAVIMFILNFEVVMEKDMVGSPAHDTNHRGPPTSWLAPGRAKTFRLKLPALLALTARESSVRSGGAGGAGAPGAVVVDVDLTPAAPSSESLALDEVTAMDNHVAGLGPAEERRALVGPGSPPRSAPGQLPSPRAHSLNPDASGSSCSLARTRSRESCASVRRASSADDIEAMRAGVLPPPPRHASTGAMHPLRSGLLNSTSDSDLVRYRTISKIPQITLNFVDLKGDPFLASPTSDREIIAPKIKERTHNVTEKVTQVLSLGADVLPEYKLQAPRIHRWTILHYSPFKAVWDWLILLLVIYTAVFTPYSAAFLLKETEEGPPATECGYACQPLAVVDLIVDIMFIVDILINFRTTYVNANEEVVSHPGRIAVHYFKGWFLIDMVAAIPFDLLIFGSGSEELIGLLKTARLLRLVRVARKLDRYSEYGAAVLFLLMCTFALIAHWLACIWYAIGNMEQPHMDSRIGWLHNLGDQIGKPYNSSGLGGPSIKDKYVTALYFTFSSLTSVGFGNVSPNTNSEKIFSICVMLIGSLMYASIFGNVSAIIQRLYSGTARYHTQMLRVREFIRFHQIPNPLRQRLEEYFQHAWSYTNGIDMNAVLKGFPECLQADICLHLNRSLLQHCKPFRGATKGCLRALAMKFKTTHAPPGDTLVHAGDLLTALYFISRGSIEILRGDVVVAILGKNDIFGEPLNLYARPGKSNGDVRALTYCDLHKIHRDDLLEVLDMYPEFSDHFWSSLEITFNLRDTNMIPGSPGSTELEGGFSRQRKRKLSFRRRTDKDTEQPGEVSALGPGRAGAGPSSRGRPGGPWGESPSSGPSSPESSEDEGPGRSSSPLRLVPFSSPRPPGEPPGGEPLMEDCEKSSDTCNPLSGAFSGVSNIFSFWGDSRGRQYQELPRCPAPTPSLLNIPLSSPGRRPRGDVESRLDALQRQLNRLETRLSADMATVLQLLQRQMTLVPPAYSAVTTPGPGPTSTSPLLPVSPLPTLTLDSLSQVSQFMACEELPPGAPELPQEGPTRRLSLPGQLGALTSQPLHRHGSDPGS

This experiment addresses human ether-à-go-go-related gene (hERG) potassium channel (human, UniProt Q12809). Kind of experiment: primary screen, population patch clamp on CHO cells stably expressing hERG.
For `COc1ccc(Cl)cc1NC(=O)CN(C)Cc1cccs1`, the “hERG current change (%, negative = inhibition) at 10uM” value is listed as -2.71%.
The value for `COc1ccc(-c2nnc3ccc(SCC(=O)Nc4nc5ccccc5s4)nn23)cc1OC` was -11.9%; that for `C[N+]1(C2CCC3CCCC2C3O)CCCC1.[I-]` (centres unmarked) was -1.33%.
The value for `COc1ccc(S(=O)(=O)N2CCCCCC2)cc1C(=O)N(C)CC(=O)Nc1ccc(Cl)c(Cl)c1` was -10.4%.
The value for `CNc1nc(OCC(F)(F)F)nc(OCC(F)(F)F)n1` was -15.5%; that for `O=C(CSc1nc2ccncc2[nH]1)Nc1ccccc1C(F)(F)F` was -4.07%.
On to `O=S(=O)(NCc1ccc(Cl)cc1)NCc1ccc(Cl)cc1`, for which the “hERG current change (%, negative = inhibition) at 10uM” value is 12.7%.
The value for `COc1ccc2c(=O)c(C(=O)NCCc3ccccc3)c[nH]c2c1` was -7.4%; that for `O=C(CCNc1cccc(Cl)c1)c1ccco1` was -30.2%; that for `CC(=O)c1sc(-c2cccc(Cl)c2)nc1C` was 33.3%.
The value for `COC(=O)C1CCCN1S(=O)(=O)c1ccccc1NC(=O)c1cc(OC)c(OC)c(OC)c1` (centres unmarked) was 10.9%; that for `COc1cc(C(=O)N2C(=O)CCC2=O)cc(OC)c1OC` was 28.7%.
For `CCOC(=O)[C@H]1[C@H]2COc3ccc(Br)cc3[C@@H]2N2C(=O)c3cc(Br)ccc3NC(=O)[C@@]12C`, the “hERG current change (%, negative = inhibition) at 10uM” value worked out at 12.6%.
To `CCN(CC(=O)NCc1ccc(Cl)cc1)C(=O)CCC(=O)c1ccc(C)cc1` belongs -66.5%; to `Cc1cc(=O)oc2cc(O[C@@H]3O[C@H](CO)[C@@H](O)[C@H](O)[C@H]3O)ccc12`, 14.1%.
To `CCCCN(C(=O)CSCC(=O)Nc1ccc(OC)cc1)c1c(N)n(CCC)c(=O)[nH]c1=O` belongs 9.82%.
The value for `CCCNC(=O)N1CCCC(C(N)=O)C1` (centres unmarked) was 21.5%; that for `C=CCc1ccccc1OCCSc1nc2ccc([N+](=O)[O-])cc2s1` was 11%.
`CC1CCCN(S(=O)(=O)c2csc(C(N)=O)c2)C1` (centres unmarked): the “hERG current change (%, negative = inhibition) at 10uM” value is on record as 15.2%.
To `O=C(CN(Cc1ccccc1)C(=O)CCC(=O)Nc1nccs1)NCc1ccco1` belongs -5.77%; to `Cc1ccc(NC(=O)CN2CCN(CCN=CC3=C(O)CC(C)(C)CC3=O)CC2)cc1`, -19.3%; to `C=CCOc1ccc(/C=C/C(=O)OCC(=O)N2CCCc3ccccc32)cc1`, -4.28%.
The value for `Cc1ccc(C(=O)OCC(=O)Nc2nc(-c3ccccc3)cs2)cc1NC(=O)c1ccco1` was -23.1%.
With `COc1ccc(S(=O)(=O)NCC(c2cccnc2)N2CCN(C)CC2)cc1OC` (centres unmarked), the “hERG current change (%, negative = inhibition) at 10uM” value was 10.7%.
To `Cc1cc(C)c2nc(-c3ccccn3)cc(C(=O)N3CCCC3)c2c1` belongs 5.63%.
The value for `COc1cc(Br)c(C2CC(=O)Nc3cc(OC)c(OC)cc32)cc1OC` (centres unmarked) was 7.69%; that for `Cc1ccc(-n2c(CNC(=O)c3cccs3)nnc2SCC(=O)NO)cc1` was 12.1%.
`COc1ccc(CNC(=O)C2CCN(S(=O)(=O)c3cccc4nonc34)CC2)cc1`: the “hERG current change (%, negative = inhibition) at 10uM” value is recorded as -0.634%.
To `CC(=O)N1c2c(cc(Br)cc2S(=O)(=O)N2CCOCC2)CC1C` (centres unmarked) belongs -0.158%.
The value for `Cc1[nH][nH]c(=O)c1C(c1ccc(Br)cc1)c1c(C)[nH][nH]c1=O.Cl` was 3.87%; that for `N/C(=N\N=C\c1ccc(Br)o1)c1nonc1N` was 13%.
The value for `NC(=O)c1ccccc1N=Cc1cccnc1` was -21%; that for `COc1ccc(N2C(=O)CC(N3CCN(c4ccc(Cl)cc4)CC3)C2=O)cc1` (centres unmarked) was -4.94%; that for `O=C(N/N=C/c1ccccc1Cl)C1CC1` was 4.02%.
As for `O=C(Nc1cccc(Cl)c1)OCCN1CCN(Cc2ccccc2)CCC1=O`, the “hERG current change (%, negative = inhibition) at 10uM” value is on record as -30.6%.
As to `Cc1[nH]c(C)c(S(=O)(=O)Nc2ccc(OC(F)(F)F)cc2)c1C(=O)N1CCCCC1`, the “hERG current change (%, negative = inhibition) at 10uM” value is -7.79%.
Consider `O=S(=O)(NCC1COc2ccccc2O1)c1ccc2ccccc2c1` (centres unmarked), for which the “hERG current change (%, negative = inhibition) at 10uM” value is 17.3%.
To `Cc1ccccc1NC(=O)CNc1ccc(Cl)c(C(F)(F)F)c1` belongs 13.5%; to `CCSc1nnc2nc3[nH]c4c(C)cccc4c3nn12`, 0.372%.
On to `COc1cc(CN(C)CC2CCCN(CCc3ccccc3F)C2)cc(Cl)c1OC` (centres unmarked), for which the “hERG current change (%, negative = inhibition) at 10uM” value is recorded as -69.8%.
The value for `CCc1ccccc1NC(=S)NCc1cccn1C` was 10.7%; that for `Cc1ccccc1CSc1nnc(-c2ccncc2)n1C` was 9.26%; that for `Cc1cc(C)c2c(C)c(C(=O)NCc3ccc(S(N)(=O)=O)cc3)oc2c1` was 29.4%.
The value for `O=C(NCCCN1CCOCC1)C(=O)NCc1ccc(Cl)cc1` was -7.65%.
The value for `Cc1cccc(NC(=S)N2CCC(C(N)=O)(N3CCCCC3)CC2)c1C` was 23.9%; that for `CCNC(=O)NC(=O)C(C)Sc1nc2cc(C(=O)OC)ccc2c(=O)n1-c1ccccc1` (centres unmarked) was -17.9%.
As to `CCCc1cc(=O)[nH]c(SCC(=O)C(C)(C)C)n1`, the “hERG current change (%, negative = inhibition) at 10uM” value is 15%.
The value for `CN1C(=O)c2cccc(NCCCCCCN3C(=O)c4ccccc4C3=O)c2C1=O` was 5.41%.
The value for `CCOC(=O)N1CCN(C(=O)c2ccc(CS(=O)(=O)c3ccccc3OC)o2)CC1` was -6.01%; that for `O=C1OCC(Cn2c3ccccc3c3ccccc32)O1` (centres unmarked) was -7.48%.
To `CC(=O)Oc1ccc(C(=O)[C@H]2[C@H]3C(=O)N(c4ccc(C)cc4C)C(=O)[C@H]3[C@@H]3C=CC=NN32)cc1` belongs 8.69%; to `C(=N\NCc1ccccc1)/c1ccc2nccnc2c1`, -1.82%.
On to `Cn1c(=O)[nH]c(=O)c2c1nc(Br)n2C/C=N/NC(=O)c1ccccc1`, for which the “hERG current change (%, negative = inhibition) at 10uM” value is recorded as 6.13%.
The value for `COc1ccc(-c2c(-c3ccccc3OC)sc3ccccc23)cc1OC` was 9.81%; that for `Cc1ccccc1OCC(=O)NNC(=O)C1CCN(c2ncnc3sc(C)c(C)c23)CC1` was -19.3%; that for `O=C(O)CCc1nn2c3ccccc3nc2n(-c2ccccc2)c1=O` was -2.32%.
The value for `Cc1ccccc1C(=O)N1CCN(C(c2ccccc2)c2ccccc2)CC1.Cl` was 2.11%; that for `CCOc1cc(CNCc2ccccn2)cc(Cl)c1OC.Cl` was 29.6%.
To `CCOC(=O)C1CCN(CC(O)COC(CC)c2ccccc2)CC1.Cl` (centres unmarked) belongs -63.7%; to `CC1S/C(=N/N=C/c2ccco2)NC1=O` (centres unmarked), 10.4%; to `CCOC(=O)Cc1csc(NC(=O)CSc2nnc(-c3ccncc3)n2Cc2ccco2)n1`, -5.63%.
Take `Cn1c(N)c(C(=O)COC(=O)C2=NNC(=O)CC2)c(=O)n(C)c1=O`: the “hERG current change (%, negative = inhibition) at 10uM” value amounted to 20.2%.
The value for `COc1ccccc1NC(=O)C/C(C)=N/NC(=O)c1ccccn1` was 0.673%; that for `COc1cc(OC)cc(-c2c(-c3cccs3)c3cc(-c4ccc(OC)cc4F)ccc3n2C)c1` was 18.6%; that for `[Na+].[S-]c1nnc(-c2ccc(Cl)cc2)n1Cc1ccccc1` was 21.4%.
For `Cc1ccc(C)c(OCc2nc3ccc(S(=O)(=O)Nc4c(C)n(C)n(-c5ccccc5)c4=O)cc3[nH]2)c1`, the “hERG current change (%, negative = inhibition) at 10uM” value came out at 7.31%.
With `Cc1cc(=O)oc2c(C)c(OC(C)C(=O)NCCCN3CCOCC3)ccc12` (centres unmarked), the “hERG current change (%, negative = inhibition) at 10uM” value was -5.21%.
To `CCN1CCN(c2cc(C)c3cc(NC(=O)c4ccc5c(c4)OCO5)ccc3n2)CC1` belongs -38.6%.
`CCS(=O)(=O)N1CCc2cc(OC)c(OC)cc2C1`: the “hERG current change (%, negative = inhibition) at 10uM” value came out at 4.18%.
To `CC(C)NC(=O)CN(C)S(=O)(=O)c1ccc(F)cc1` belongs 11.1%; to `O=C(Nc1cc(N2CCCCC2)ncn1)c1ccccc1`, -1.93%; to `CN(C)CCCNCCCNC(=O)/C(=N\O)c1ccccn1`, 9.88%.
To `CC(C)(C)c1ccc(OCC(=O)NNC(=S)NC(=O)c2ccco2)c(Br)c1` belongs 24.6%; to `ClC1(CNc2ccccc2)CCN(Cc2ccccc2)CC1.O=C(O)/C=C\C(=O)O`, -9.96%; to `O=C(C1CC(=O)N(c2ccc(Cl)cc2)C1)N1CCCCCC1` (centres unmarked), -8.92%.
The value for `O=C(NCCN1CCN(c2ccccc2)CC1)C1CCN(S(=O)(=O)c2cccc3nonc23)CC1` was -2.99%; that for `O=C(Cc1cccc2ccccc12)N1CCN(c2ncccn2)CC1` was -18.8%.
`O=C(Cc1ccccc1)N1CCN(CC2CC=CCC2)CC1` (centres unmarked): the “hERG current change (%, negative = inhibition) at 10uM” value is recorded as -3.05%.
The value for `CNc1nc(C)nc(-n2nc(C)cc2C)n1` was 15.8%.
To `CCCCOc1ccc(-c2nc(SCC(N)=O)n[nH]2)cc1` belongs -1.68%.
To `O=C(NCc1ccc(F)cc1)C1CCCN(C(=O)Nc2ccccc2)C1` (centres unmarked) belongs -38.5%.
As for `O/N=C/c1ccccc1Oc1ccc(Cl)cc1`, the “hERG current change (%, negative = inhibition) at 10uM” value is -33.9%.
To `CCNc1c(NC(C)=O)c(=O)oc2ccccc12` belongs 21%; to `Cn1c(SCc2nc(-c3ccc(Cl)cc3)no2)nnc1-c1ccco1`, -53.2%.
To `O=C1C(=O)N(CCN2CCCCC2)c2ccccc21` belongs -11.5%.
The value for `CC(C)(C)c1ccc(C(=O)NC(Cc2ccccc2)C(=O)O)cc1` (centres unmarked) was -4%.
Consider `Cc1cccc(CC(=O)c2c[nH]c3ccccc23)c1`, for which the “hERG current change (%, negative = inhibition) at 10uM” value was found to be 12.1%.
To `CCCCn1c(CN2CCN(C(=O)OCC)CC2)nc2c1c(=O)n(C)c(=O)n2C` belongs -18.1%.
For `Cc1c(CN2CCc3c([nH]c4ccccc34)C2C2CCCCC2)cnn1C` (centres unmarked), the “hERG current change (%, negative = inhibition) at 10uM” value is recorded as -38.7%.
